One may read the EC50 as the concentration at which the effect is half-maximal. A word on the Kd: it is the equilibrium constant for the complex coming apart. For orientation: koff means the first-order rate constant of dissociation. In general, kon refers to the rate constant with which the complex forms.

The values below come from patent US20090311253A1 (AbbVie / Abbott, published 2009).

Assay [1] addresses T1, Recombinant Human IL-6 sR (human, UniProt P08887 20-358, limits assumed).
T1 construct: domain: IL-6 sR; soluble receptor; also called IL-6R
T1 sequence (looked up): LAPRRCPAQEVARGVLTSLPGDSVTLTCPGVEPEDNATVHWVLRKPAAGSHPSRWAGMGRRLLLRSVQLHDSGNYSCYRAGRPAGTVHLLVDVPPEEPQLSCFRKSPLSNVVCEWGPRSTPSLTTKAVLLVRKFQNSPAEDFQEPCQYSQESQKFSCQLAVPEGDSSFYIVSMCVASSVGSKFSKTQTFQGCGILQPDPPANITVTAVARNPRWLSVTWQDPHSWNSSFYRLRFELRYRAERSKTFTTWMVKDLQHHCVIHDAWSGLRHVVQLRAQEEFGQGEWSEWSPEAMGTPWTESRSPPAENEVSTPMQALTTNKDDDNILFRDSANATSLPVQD
Briefly: direct bind ELISA. The procedure: (§1) Enzyme Linked Immunosorbent Assays to screen for antibodies that bind a desired target antigen were performed as follows. High bind ELISA plates (Corning Costar # 3369, Acton, Mass.) were coated with 100 μL/well of 10 μg/ml of desired target antigen (R&D Systems, Minneapolis, Minn.) or desired target antigen extra-cellular domain/FC fusion protein (R&D Systems, Minneapolis, Minn.) or monoclonal mouse anti-polyhistidine antibody (R&D Systems # MAB050, Minneapolis, Minn.) in phosphate buffered saline (10×PBS, Abbott Bioresearch Center, Media Prep# MPS-073, Worcester, Mass.) overnight at 4° C. Plates were washed four times with PBS containing 0.02% Tween 20. Plates were blocked by the addition of 300 μL/well blocking solution (non-fat dry milk powder, various retail suppliers, diluted to 2% in PBS) for ½ hour at room temperature. Plates were washed four times after blocking with PBS containing 0.02% Tween 20.
(§2) Plates were washed 4 times with PBS containing 0.02% Tween 20.
(§3) One hundred microliters of enhanced TMB solution (Neogen Corp. #308177, K Blue, Lexington, Ky.) was added to each well and incubated for 10 minutes at room temperature. The reaction was stopped by the addition of 50 μL 1N sulphuric acid. Plates were read spectrophotometrically at a wavelength of 450 nm.
For orientation: ELISA stands for enzyme-linked immunosorbent assay.

The next assay has as its target T2, Recombinant Human VEGF (human, UniProt P15692-4 27-191).
T2 construct: also called VEGF165
T2 sequence (looked up): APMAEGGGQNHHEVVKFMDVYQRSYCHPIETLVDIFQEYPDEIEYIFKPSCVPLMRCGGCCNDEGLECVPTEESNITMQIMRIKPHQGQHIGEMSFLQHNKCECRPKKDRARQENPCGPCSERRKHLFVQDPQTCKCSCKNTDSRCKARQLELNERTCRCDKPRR
As to the kind of experiment: direct bind ELISA. The method, then:
as §1, §2, §3

In a further assay the target is T3, IL-6R on cells (UniProt P08887 20-468, limits assumed).
T3 construct: whole, on cells
T3 sequence (looked up): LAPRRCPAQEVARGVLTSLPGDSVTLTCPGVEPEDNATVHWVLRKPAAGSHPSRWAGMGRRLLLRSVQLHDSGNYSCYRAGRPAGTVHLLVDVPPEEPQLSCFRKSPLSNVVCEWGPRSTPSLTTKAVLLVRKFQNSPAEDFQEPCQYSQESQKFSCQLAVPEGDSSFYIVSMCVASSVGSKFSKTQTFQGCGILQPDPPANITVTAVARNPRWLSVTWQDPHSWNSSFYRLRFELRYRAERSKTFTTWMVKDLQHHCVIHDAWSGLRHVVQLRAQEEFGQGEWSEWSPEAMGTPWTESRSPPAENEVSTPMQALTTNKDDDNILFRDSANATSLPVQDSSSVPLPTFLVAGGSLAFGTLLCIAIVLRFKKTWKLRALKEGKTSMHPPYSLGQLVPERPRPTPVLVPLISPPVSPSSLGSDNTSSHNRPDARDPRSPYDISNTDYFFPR
Briefly: flow cytometry on cells, 2 µg/mL. The method, then: Stable cell lines overexpressing a cell-surface antigen of interest or human tumor cell lines were harvested from tissue culture flasks and resuspended in phosphate buffered saline (PBS) containing 5% fetal bovine serum (PBS/FBS). Prior to staining, human tumor cells were incubated on ice with (100 μl) human IgG at 5 μg/ml in PBS/FCS. 1−5×10⁵ cells were incubated with antibody or DVD-Ig (2 μg/mL) in PBS/FBS for 30-60 minutes on ice. […] After 30 minutes incubation on ice, cells were washed twice and resuspended in PBS/FBS. Fluorescence was measured using a Becton Dickinson FACSCalibur (Becton Dickinson, San Jose, Calif.).
The geometric mean is the n root of the multiplication product of n fluorescent signals (a1×a2×a3 . . . an). With log-transformed data the geometric mean is used to normalize the weighting of the data distribution.
In general terms: In flow cytometry, cells or beads pass a laser one at a time.

Assay [2] deals with T4, Recombinant Human IL-17 (human, UniProt Q16552 20-155, limits assumed).
T4 construct: bought; also called IL-17A
As to the kind of experiment: Biacore SPR. The procedure: (§4) The BIACORE assay (Biacore, Inc, Piscataway, N.J.) determines the affinity of antibodies or DVD-Ig with kinetic measurements of on-rate and off-rate constants. Binding of antibodies or DVD-Ig to a target antigen (for example, a purified recombinant target antigen) is determined by surface plasmon resonance-based measurements with a BiacoreR 1000 or 3000 instrument (Biacore® AB, Uppsala, Sweden) using running HBS-EP (10 mM HEPES [pH 7.4], 150 mM NaCl, 3 mM EDTA, and 0.005% surfactant P20) at 25° C. All chemicals are obtained from Biacore® AB (Uppsala, Sweden) or otherwise from a different source as described in the text. For example, approximately 5000 RU of goat anti-mouse IgG, (Fcγ), fragment specific polyclonal antibody (Pierce Biotechnology Inc, Rockford, Ill.) diluted in 10 mM sodium acetate (pH 4.5) is directly immobilized across a CM5 research grade biosensor chip using a standard amine coupling kit according to manufacturer's instructions and procedures at 25 μg/ml. Unreacted moieties on the biosensor surface are blocked with ethanolamine. Modified carboxymethyl dextran surface in flowcell 2 and 4 is used as a reaction surface. Unmodified carboxymethyl dextran without goat anti-mouse IgG in flow cell 1 and 3 is used as the reference surface. For kinetic analysis, rate equations derived from the 1:1 Langmuir binding model are fitted simultaneously to association and dissociation phases of all eight injections (using global fit analysis) with the use of Biaevaluation 4.0.1 software. Purified antibodies or DVD-Ig are diluted in HEPES-buffered saline for capture across goat anti-mouse IgG specific reaction surfaces. Antibodies or DVD-Ig to be captured as a ligand (25 μg/ml) are injected over reaction matrices at a flow rate of 5 μl/min. The association and dissociation rate constants, kₒₙ (M⁻¹s⁻¹) and koff (s⁻¹) are determined under a continuous flow rate of 25 μl/min. Rate constants are derived by making kinetic binding measurements at different antigen concentrations ranging from […]. The equilibrium dissociation constant (M) of the reaction between antibodies or DVD-Igs and the target antigen is then calculated from the kinetic rate constants by the following formula: KD=koff/kₒₙ. Binding is recorded as a function of time and kinetic rate constants are calculated.
On the technique in general: SPR reads the build-up and loss of mass on a sensor chip optically.

For assay [3], the target named is T4, Recombinant Human IL-17. Briefly: direct bind ELISA. The method, then: as §1, §2, §3
Assay [4] addresses T5, Recombinant Human IL-1β (human, UniProt P01584 117-269).
T5 construct: also called IL-1b; IL-1B
As to the kind of experiment: direct bind ELISA. The method, then:
as §1, §2, §3

Assay [5] addresses T5, Recombinant Human IL-1β. As to the kind of experiment: cell-based or functional assay.
For assay [6], the target named is T4, Recombinant Human IL-17. Briefly: cell-based or functional assay.
Assay [7] has as its target T5, Recombinant Human IL-1β. Briefly: Biacore SPR. The procedure: as §4

B1: DVD146 (bispecific antibody, human IgG1, kappa)
heavy: EVQLVESGGGLVQPGGSLRLSCAASGYTFTNYGMNWVRQAPGKGLEWVGWINTYTGEPTYAADFKRRFTFSLDTSKSTAYLQMNSLRAEDTAVYYCAKYPHYYGSSHWYFDVWGQGTLVTVSSASTKGPEVQLQESGPGLVRPSQTLSLTCTVSGYSITSDHAWSWVRQPPGRGLEWIGYISYSGITTYNPSLKSRVTMLRDTSKNQFSLRLSSVTAADTAVYYCARSLARTTAMDYWGQGSLVTVSS[left out - human IgG1 constant region]
light: DIQMTQSPSSLSASVGDRVTITCSASQDISNYLNWYQQKPGKAPKVLIYFTSSLHSGVPSRFSGSGSGTDFTLTISSLQPEDFATYYCQQYSTVPWTFGQGTKVEIKRTVAAPDIQMTQSPSSLSASVGDRVTITCRASQDISSYLNWYQQKPGKAPKLLIYYTSRLHSGVPSRFSGSGSGTDFTFTISSLQPEDIATYYCQQGNTLPYTFGQGTKVEIKRTVAAPSVFIFPPSDEQLKSGTASVVCLLNNFYPREAKVQWKVDNALQSGNSQESVTEQDSKDSTYSLSSTLTLSKADYEKHKVYACEVTHQGLSSPVTKSFNRGEC
notes: vectors V1, V2; also called VEGF and IL-6R DVD-Ig
Turning to B1, the half-maximal effective concentration (EC50) in [1] stood at 124 nM; with Recombinant Human VEGF, 0.68 nM. Also, the “FACS Geometric Mean” value with IL-6R on cells was determined as 0.22.

B2: DVD122 (bispecific antibody, human IgG1, kappa)
heavy: EVQLVESGGGLVQPGGSLRLSCAASGFTFSNYWMNWVRQAPGKGLEWVAAINQDGSEKYYVGSVKGRFTISRDNAKNSLYLQMNSLRVEDTAVYYCVRDYYDILTDYYIHYWYFDLWGRGTLVTVSSASTKGPQVQLVESGGGVVQPGRSLRLSCAASGFTFSVYGMNWVRQAPGKGLEWVAIIWYDGDNQYYADSVKGRFTISRDNSKNTLYLQMNGLRAEDTAVYYCARDLRTGPFDYWGQGTLVTVSS[left out - human IgG1 constant region]
light: [left out - about 100 residues]RTVAAPEIVLTQSPDFQSVTPKEKVTITCRASQSIGSSLHWYQQKPDQSPKLLIKYASQSFSGVPSRFSGSGSGTDFTLTINSLEAEDAAAYYCHQSSSLPFTFGPGTKVDIKRTVAAPSVFIFPPSDEQLKSGTASVVCLLNNFYPREAKVQWKVDNALQSGNSQESVTEQDSKDSTYSLSSTLTLSKADYEKHKVYACEVTHQGLSSPVTKSFNRGEC
notes: outer AB029, inner AB032; vectors V1, V2
Regarding B2, in the assay with Recombinant Human IL-17 [2], the Kd was 0.307 nM, the koff was 6.66e-05 s⁻¹ and the kon is 217000 M⁻¹ s⁻¹. Also, in the assay with Recombinant Human IL-17 [3], the EC50 came to 0.58 nM. In addition, the EC50 with Recombinant Human IL-1β [4] came out at 1200 nM. Moreover, the “IL-1β Neutralization Assay EC50 (MRC5 cells, hIL-8)” value with Recombinant Human IL-1β [5] came out at 28 nM. In addition, in the assay with Recombinant Human IL-17 [6], the “IL-17 Neutralization Assay EC50 (HS27 cells, IL-6 secretion)” value was determined as 0.54 nM.

B3: DVD145 (bispecific antibody, human IgG1, kappa)
heavy: EVQLQESGPGLVRPSQTLSLTCTVSGYSITSDHAWSWVRQPPGRGLEWIGYISYSGITTYNPSLKSRVTMLRDTSKNQFSLRLSSVTAADTAVYYCARSLARTTAMDYWGQGSLVTVSSASTKGPEVQLVESGGGLVQPGGSLRLSCAASGYTFTNYGMNWVRQAPGKGLEWVGWINTYTGEPTYAADFKRRFTFSLDTSKSTAYLQMNSLRAEDTAVYYCAKYPHYYGSSHWYFDVWGQGTLVTVSS[left out - human IgG1 constant region]
light: DIQMTQSPSSLSASVGDRVTITCRASQDISSYLNWYQQKPGKAPKLLIYYTSRLHSGVPSRFSGSGSGTDFTFTISSLQPEDIATYYCQQGNTLPYTFGQGTKVEIKRTVAAPDIQMTQSPSSLSASVGDRVTITCSASQDISNYLNWYQQKPGKAPKVLIYFTSSLHSGVPSRFSGSGSGTDFTLTISSLQPEDFATYYCQQYSTVPWTFGQGTKVEIKRTVAAPSVFIFPPSDEQLKSGTASVVCLLNNFYPREAKVQWKVDNALQSGNSQESVTEQDSKDSTYSLSSTLTLSKADYEKHKVYACEVTHQGLSSPVTKSFNRGEC
notes: vectors V1, V2; also called IL-6R and VEGF DVD-Ig
Regarding B3, the EC50 was determined as 0.96 nM in assay [1] and 14.5 nM with Recombinant Human VEGF. For the same molecule, the “FACS Geometric Mean” value with IL-6R on cells is 8.23.

B4: DVD121 (bispecific antibody, human IgG1, kappa)
heavy: QVQLVESGGGVVQPGRSLRLSCAASGFTFSVYGMNWVRQAPGKGLEWVAIIWYDGDNQYYADSVKGRFTISRDNSKNTLYLQMNGLRAEDTAVYYCARDLRTGPFDYWGQGTLVTVSSASTKGPEVQLVESGGGLVQPGGSLRLSCAASGFTFSNYWMNWVRQAPGKGLEWVAAINQDGSEKYYVGSVKGRFTISRDNAKNSLYLQMNSLRVEDTAVYYCVRDYYDILTDYYIHYWYFDLWGRGTLVTVSS[left out - human IgG1 constant region]
light: EIVLTQSPDFQSVTPKEKVTITCRASQSIGSSLHWYQQKPDQSPKLLIKYASQSFSGVPSRFSGSGSGTDFTLTINSLEAEDAAAYYCHQSSSLPFTFGPGTKVDIKRTVAAP[left out - about 100 residues][left out - about 100 residues]
notes: outer AB032, inner AB029; vectors V1, V2
For B4, in the assay with Recombinant Human IL-1β [7], the Kd is 0.0619 nM, the off-rate constant (koff) is 7.52e-05 s⁻¹ and the kon turned out to be 1.22e+06 M⁻¹ s⁻¹. Besides, in the assay with Recombinant Human IL-17 [3], the EC50 amounted to 12.2 nM. The EC50 with Recombinant Human IL-1β [4] turned out to be 9.78 nM. Besides, in the assay with Recombinant Human IL-1β [5], the “IL-1β Neutralization Assay EC50 (MRC5 cells, hIL-8)” value came out at 0.04 nM. Further, the “IL-17 Neutralization Assay EC50 (HS27 cells, IL-6 secretion)” value in the assay with Recombinant Human IL-17 [6] worked out at 14.9 nM.
